This passage reports relative growth results from the supplement of paper PMC9446081.

Among all 39,000 compounds or so, about 220 (0.56%) showed activity. The list shows a part of the results.
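Note: static incubation at 37 °C against the wild-type strain, values averaged over two biological replicates.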

The test relates to Escherichia coli K-12 BW25113. As to the kind of experiment: relative growth (OD600 normalised to plate interquartile mean) (fraction); higher = less growth inhibition, active = 0.2 or less. Particulars: 50 µM; LB; incubation time: overnight (16-24 h).
Consider `COc1ccc(S(=O)(=O)N(C)C[C@@H]2Oc3ccc(NC(=O)C4CC4)cc3C(=O)N([C@@H](C)CO)C[C@@H]2C)cc1`, for which the relative growth is inactive: 1.01. For `C[C@H](O)C#Cc1cnc2c(c1)C(=O)N([C@@H](C)CO)C[C@H](C)[C@H](CN(C)C(=O)CN1CCOCC1)O2`, the relative growth was inactive: 0.996.

For the compound `Cn1cnc(S(=O)(=O)N2CC[C@H](O)[C@@H]2Cc2cnn(C)c2)c1`, the relative growth is inactive: 0.996.

On to `COc1ccc(NC(=O)N(C)C[C@H]2Oc3ccc(NC(=O)CCCCCC(=O)Nc4ccccc4N)cc3CC(=O)N([C@@H](C)CO)C[C@H]2C)cc1`, for which the relative growth is inactive: 0.959. To `Cc1ccc(S(=O)(=O)Nc2ccc3c(c2)C(=O)N([C@H](C)CO)C[C@@H](C)[C@H](CN(C)Cc2ccc4c(c2)OCO4)OCCCC[C@H](C)O3)cc1` belongs inactive: 1.02; to `C[C@H](CO)N1C[C@H](C)[C@@H](CN(C)C(=O)CCC(F)(F)F)OCCCC[C@H](C)Oc2ccc(NS(=O)(=O)c3ccc(Cl)cc3)cc2C1=O`, inactive: 0.991. With `CNC(=O)c1cnn(-c2nc(N)c3ncn([C@@H]4O[C@H](CO)[C@@H](O)[C@H]4O)c3n2)c1` the figure was inactive: 0.905; with `CC(C)CC#Cc1cnc2c(c1)C(=O)N([C@H](C)CO)C[C@@H](C)[C@H](CN(C)S(=O)(=O)c1cccs1)O2`, inactive: 1.03.

On to `C[C@H](CO)N1C[C@H](C)[C@@H](CN(C)S(=O)(=O)c2ccccc2)Oc2ccc(NC(=O)CCCN(C)C)cc2CC1=O`, for which the relative growth is inactive: 1.

For `COc1ccc(CNC(=O)C[C@@H]2CC[C@H]3[C@@H](COC[C@H](O)CN3S(=O)(=O)c3ccc(OC)cc3)O2)cc1`, the relative growth was inactive: 1.02. To `Cc1noc(C)c1S(=O)(=O)Nc1ccc2c(c1)C(=O)N([C@H](C)CO)C[C@H](C)[C@@H](CN(C)S(=O)(=O)c1c(C)noc1C)O2` belongs inactive: 0.991; to `C[C@H]1CCCCO[C@H](CN(C)C(=O)c2ccccc2)[C@@H](C)CN([C@@H](C)CO)C(=O)c2cc(NC(=O)Nc3ccc4c(c3)OCO4)ccc2O1`, inactive: 1.01; to `C[C@H]1CN([C@@H](C)CO)C(=O)c2cccc(NS(C)(=O)=O)c2O[C@H]1CN(C)Cc1ccc(C(=O)O)cc1`, inactive: 0.989. For the compound `Cc1ccc(C(=O)Nc2ccc(S(=O)(=O)O)c3cc(S(=O)(=O)O)cc(S(=O)(=O)O)c23)cc1NC(=O)c1cccc(NC(=O)Nc2cccc(C(=O)Nc3cc(C(=O)Nc4ccc(S(=O)(=O)O)c5cc(S(=O)(=O)O)cc(S(=O)(=O)O)c45)ccc3C)c2)c1`, the relative growth was inactive: 1.01. To `COC1(NC(=O)CSCC#N)C(=O)N2C(C(=O)[O-])=C(CSc3nnnn3C)CSC21.[Na+]` (stereo unspecified) belongs active: 0.0458; to `C[C@H]1CN([C@@H](C)CO)S(=O)(=O)c2ccc(C#CC3(O)CCCC3)cc2O[C@H]1CN(C)C(=O)c1ccccc1`, inactive: 1. On to `CO[C@H](CN(C)S(=O)(=O)c1cn(C)cn1)[C@@H](C)CN(C(=O)Nc1ccc(C(F)(F)F)cc1)[C@H](C)CO`, for which the relative growth was inactive: 0.725. Take `O=C(Nc1nccs1)[C@@H]1[C@@H](CO)[C@@H]2Cn3c(cccc3=O)[C@H]1N2C(=O)C1CC1`: the relative growth is inactive: 1.03.

With `C[C@H]1CCCCO[C@H](CN(C)S(=O)(=O)c2cccs2)[C@@H](C)CN([C@@H](C)CO)C(=O)c2cc(NC(=O)Nc3cccc4ccccc34)ccc2O1`, the relative growth is inactive: 1.02. To `C[C@@H]1CN([C@H](C)CO)S(=O)(=O)c2ccc(C#Cc3ccccc3F)cc2O[C@H]1CN(C)C(=O)c1ccc2c(c1)OCO2` belongs inactive: 1.04; to `C[C@H]1CN([C@@H](C)CO)C(=O)c2cc(C#Cc3ccccc3)cnc2O[C@H]1CN(C)C(=O)CCN1CCCCC1`, inactive: 0.97. To `COc1ccc(S(=O)(=O)N(C)C[C@@H]2OCCCC[C@H](C)Oc3ccc(NS(C)(=O)=O)cc3C(=O)N([C@H](C)CO)C[C@H]2C)cc1` belongs inactive: 1; to `C[C@H](CO)N1C[C@H](C)[C@H](CN(C)S(=O)(=O)c2cn(C)cn2)Oc2ccc(NC(=O)CCCN(C)C)cc2CC1=O`, inactive: 0.994. To `C[C@@H]1CCCCO[C@H](CN(C)S(C)(=O)=O)[C@H](C)CN([C@H](C)CO)C(=O)c2cc(N(C)C)ccc2O1` belongs inactive: 0.984; to `NC(=O)CCN1CCn2c1nc1ccccc12`, inactive: 0.995.

`C[C@@H]1CN([C@@H](C)CO)C(=O)Cc2cc(NC(=O)Nc3ccc(C(F)(F)F)cc3)ccc2O[C@@H]1CN(C)Cc1ccccc1`: the relative growth was inactive: 1.07. To `C[C@H]1CN([C@@H](C)CO)C(=O)c2cc(C#Cc3ccccc3)cnc2O[C@@H]1CN(C)C(=O)CCN1CCCCC1` belongs inactive: 1.02; to `CCN(CC)CCCC(C)Nc1ccnc2cc(Cl)ccc12.O=P(O)(O)O.O=P(O)(O)O` (stereo unspecified), inactive: 1.14. With `CO[C@@H]1CN(C)C(=O)c2ccc(NC(=O)c3ccccc3)cc2OC[C@H](C)N(C(=O)CN(C)C)C[C@H]1C` the figure was inactive: 0.908. For `C[C@@H]1CN([C@H](C)CO)C(=O)Cc2cc(NS(=O)(=O)c3cn(C)cn3)ccc2O[C@@H]1CN(C)S(=O)(=O)c1ccc(F)cc1`, the relative growth is inactive: 1.02. With `C[C@@H]1CN([C@@H](C)CO)C(=O)c2cccc(NS(=O)(=O)c3ccc(F)cc3)c2O[C@H]1CN(C)S(=O)(=O)c1cn(C)cn1` the figure was inactive: 0.99; with `COc1ccc(S(=O)(=O)N(C)C[C@H]2Oc3ccc(NC(=O)C4CC4)cc3CC(=O)N([C@H](C)CO)C[C@H]2C)cc1`, inactive: 0.977. As to `COc1ccc2c3c(n(c2c1)C)[C@H](CO)N(C[C@]13CN(C1)C(=O)c1ccncc1)C(=O)C1CCOCC1`, the relative growth is inactive: 0.961. Take `C[C@@H]1CN([C@@H](C)CO)C(=O)Cc2cc(NS(=O)(=O)c3ccc(F)cc3)ccc2O[C@@H]1CN(C)S(=O)(=O)c1ccccc1`: the relative growth is inactive: 1.02. `COC(=O)[C@@H](NC(=O)Cn1cc(COc2ccccc2/C=C(C)/C=C/C(=O)NO)nn1)c1ccccc1`: the relative growth is inactive: 0.913. With `C[C@@H]1CN([C@@H](C)CO)C(=O)c2cc(NS(=O)(=O)c3ccccc3)ccc2O[C@@H]1CN(C)C(=O)Nc1cccc2ccccc12`, the relative growth is inactive: 1.03.
